According to the antibiotic and cytotoxicity screens of Wong et al. (2023):
The other results are listed elsewhere or left out.

What was measured:
HSkMC = human skeletal muscle cells; test: cytotoxicity call (relative viability < 0.9); details: 10 µM
S. aureus RN4220 = test: growth inhibition call (relative growth <= 0.2); details: 50 µM

SMILES | cytotoxicity call (HSkMC) | growth inhibition call (S. aureus RN4220)
C[C@H](CO)N1C[C@H](C)[C@H](CN(C)Cc2ccc(Oc3ccccc3)cc2)Oc2ccc(NC(=O)C3CC3)cc2CC1=O | inactive | inactive
C[C@H](CO)N1C[C@H](C)[C@@H](CN(C)C(=O)Nc2ccc3c(c2)OCO3)Oc2c(NC(=O)C3CCOCC3)cccc2C1=O | inactive | inactive
C[C@@H]1CN([C@@H](C)CO)C(=O)c2cc(NC(=O)c3ccncc3)ccc2O[C@@H]1CN(C)S(=O)(=O)c1cccs1 | inactive | inactive
C[C@@H]1CCCCO[C@H](CN(C)C(=O)NC2CCCCC2)[C@@H](C)CN([C@@H](C)CO)C(=O)c2cc(NC(=O)c3ccncc3)ccc2O1 | inactive | inactive
COc1ccc(NC(=O)Nc2ccc3c(c2)C(=O)N([C@H](C)CO)C[C@H](C)[C@H](CN(C)CC2CCCCC2)OCCCC[C@@H](C)O3)cc1 | inactive | inactive
C[C@H]1CN([C@@H](C)CO)C(=O)c2ccccc2-c2ccccc2CO[C@@H]1CN(C)C(=O)Nc1ccc(F)cc1 | inactive | inactive
O=C(O)c1ccc2[nH]cnc2n1 | inactive | inactive
CC(C)C(O)=C1C(=O)OC(c2ccoc2)C2(C)C(O)C(O)C34OC5(C)OC3(C12)C(O)C1(O)C(O)C2(C)CC1(O5)C4(C)C2CC(=O)O (stereo not given) | inactive | inactive
C[C@H]1CN([C@@H](C)CO)C(=O)Cc2cc(NC(=O)Cc3cn(C)c4ccccc34)ccc2O[C@@H]1CN(C)Cc1ccc(C(=O)Nc2ccccc2N)cc1 | inactive | inactive
O=C(C[C@@H]1CC[C@H](NC(=O)CN2CCOCC2)[C@@H](CO)O1)NC1CCC1 | inactive | inactive
C[C@@H]1CN([C@H](C)CO)C(=O)Cc2cc(NS(=O)(=O)c3cn(C)cn3)ccc2O[C@@H]1CN(C)CC1CCCCC1 | inactive | inactive
O=C1C[C@@](C(=O)NCc2ccccc2)(c2ccc([N+](=O)[O-])cc2)[C@@H](c2ccc(CO)cc2)N1CC12CC3CC(CC(C3)C1)C2 | inactive | inactive
COc1ccc(CN(C)C[C@H]2OCCCC[C@H](C)Oc3ccc(NS(=O)(=O)c4ccc(Cl)cc4)cc3C(=O)N([C@@H](C)CO)C[C@H]2C)cc1 | inactive | inactive
CC(=O)N(C)C[C@H]1Oc2cc(C#CCN(C)C)ccc2S(=O)(=O)N([C@@H](C)CO)C[C@@H]1C | inactive | inactive
[N-]=[N+]=Nc1ccccc1C[C@@]1(C(=O)N2CCCCC2)N=C(c2ccc(OCCCO)cc2)O[C@@H]1c1ccccc1 | inactive | inactive
C[C@H]1CN([C@@H](C)CO)C(=O)c2cccc(NC(=O)CCCCCC(=O)Nc3ccccc3N)c2O[C@@H]1CN(C)S(=O)(=O)c1cn(C)cn1 | inactive | inactive
COc1ccc(S(=O)(=O)N(C)C[C@H]2Oc3ccc(NS(=O)(=O)c4c(C)noc4C)cc3C(=O)N([C@H](C)CO)C[C@@H]2C)cc1 | inactive | inactive
C[C@H](CO)N1C[C@H](C)[C@@H](CN(C)Cc2ccc(-c3ccccc3)cc2)Oc2ccc(NC(=O)Nc3ccc(C(F)(F)F)cc3)cc2C1=O | active | inactive
Cc1ccc(S(=O)(=O)N(C)C[C@@H]2Oc3ccc(NS(=O)(=O)c4ccc(F)cc4)cc3C(=O)N([C@@H](C)CO)C[C@H]2C)cc1 | inactive | inactive
C[C@@H]1CN([C@H](C)CO)C(=O)c2cc(C#Cc3ccncc3)cnc2O[C@H]1CN(C)S(=O)(=O)c1ccccc1F | inactive | inactive

SMILES | cytotoxicity call (HSkMC) | growth inhibition call (S. aureus RN4220)
C[C@H](CO)N1C[C@H](C)[C@H](CN(C)C(=O)Nc2cccc3ccccc23)Oc2ncc(C#Cc3cccc(F)c3)cc2C1=O | inactive | inactive
Cc1cc(C(=O)Nc2cccc3c2O[C@@H](CN(C)Cc2ccncc2)[C@@H](C)CN([C@H](C)CO)C3=O)n(C)n1 | inactive | inactive
C[C@@H]1CN([C@H](C)CO)C(=O)c2cc(NC(=O)C3CCCCC3)ccc2O[C@@H](C)CCCCO[C@@H]1CN(C)C(=O)c1ccncc1 | inactive | inactive
N=C(N)N/N=C1\CCc2c(C(=N)N)cccc21 | active | inactive
O=C(C[C@@H]1CC[C@H]2[C@@H](COC[C@@H](O)CN2CC2CCOCC2)O1)N1CCOCC1 | inactive | inactive
Cc1cc(Cn2c(=O)n(Cc3cnc(C)s3)c(=O)c3cc(S(=O)(=O)NC4(C)CC4)ccc32)n(C)n1 | inactive | inactive
Cc1noc(C)c1NC(=O)Nc1ccc2c(c1)C(=O)N([C@H](C)CO)C[C@@H](C)[C@@H](CN(C)C(=O)Nc1ccc(C(F)(F)F)cc1)O2 | inactive | inactive
C[C@@H]1CCCCO[C@H](CN(C)Cc2ccc(C(F)(F)F)cc2)[C@@H](C)CN([C@H](C)CO)C(=O)c2cc(NS(C)(=O)=O)ccc2O1 | inactive | inactive
C[C@H](CO)N1C[C@H](C)[C@@H](CN(C)S(=O)(=O)c2cn(C)cn2)Oc2ccc(NC(=O)Nc3ccccc3)cc2CC1=O | inactive | inactive
Cc1noc(C)c1NC(=O)Nc1ccc2c(c1)C(=O)N([C@H](C)CO)C[C@@H](C)[C@H](CN(C)Cc1ccc(C(F)(F)F)cc1)O2 | inactive | inactive
C[C@@H]1CCCCO[C@H](CN(C)C(=O)Nc2ccc(C(F)(F)F)cc2)[C@@H](C)CN([C@H](C)CO)C(=O)c2cc(NS(=O)(=O)c3cccs3)ccc2O1 | inactive | inactive
COc1nn(C)cc1-c1n[nH]c(=S)n1C | inactive | inactive
C[C@@H]1CN([C@H](C)CO)C(=O)c2cc(-c3cccnc3)cnc2O[C@@H]1CN(C)Cc1ccc(-c2ccccc2)cc1 | inactive | inactive
Cn1cnc(S(=O)(=O)N2C[C@H](O)COC[C@@H]3O[C@H](CC(=O)NC4Cc5ccccc5C4)CC[C@H]32)c1 | inactive | inactive
Cc1ccc(S(=O)(=O)Nc2ccc3c(c2)C(=O)N([C@@H](C)CO)C[C@H](C)[C@@H](CN(C)S(=O)(=O)c2ccc(Cl)cc2)OCCCC[C@@H](C)O3)cc1 | inactive | inactive
C[C@H]1CN([C@@H](C)CO)C(=O)Cc2cc(NC(=O)CCCN(C)C)ccc2O[C@@H]1CN(C)C(=O)NC1CCCCC1 | inactive | inactive
COc1ccc2c3c(n(c2c1)C)[C@H](CO)N(C[C@]13CCN(CC1)C(=O)c1ccccc1F)C(=O)Nc1ccc(cc1)F | inactive | inactive
C[C@@H]1CN([C@H](C)CO)C(=O)c2cc(NC(=O)CCC(F)(F)F)ccc2O[C@H]1CN(C)Cc1ccc(C(F)(F)F)cc1 | inactive | inactive
C=C(C)C1CCC2(C)CCC3(C)C(CCC4C5(C)CCC(O)C(C)(C)C5CCC43C)C12 (stereo not given) | inactive | inactive
O=C(Cc1ccc2c(c1)OCO2)N[C@@H]1CCNC[C@H]1O | inactive | inactive

SMILES | cytotoxicity call (HSkMC) | growth inhibition call (S. aureus RN4220)
Cc1noc(C)c1NC(=O)Nc1cccc2c1O[C@@H](CN(C)Cc1ccc(Oc3ccccc3)cc1)[C@H](C)CN([C@@H](C)CO)C2=O | inactive | inactive
NNC(=O)c1ccc2c(=O)[nH][nH]c(=O)c2c1 | inactive | inactive
Clc1ccc(CON=C(Cn2ccnc2)c2ccc(Cl)cc2Cl)c(Cl)c1.O=[N+]([O-])O | inactive | active
C[C@H](O)C#Cc1ccc2c(c1)O[C@@H](CN(C)C(=O)Nc1ccccc1)[C@@H](C)CN([C@@H](C)CO)S2(=O)=O | inactive | inactive
O=C(C[C@H]1C=C[C@@H](NC(=O)CN2CCOCC2)[C@@H](CO)O1)NCCc1ccccc1 | inactive | inactive
C[C@H]1CN([C@@H](C)CO)C(=O)Cc2cc(NC(=O)Nc3ccc(C(F)(F)F)cc3)ccc2O[C@@H]1CN(C)C(=O)Nc1ccccc1 | inactive | inactive
C[C@@H]1CCCCO[C@H](CN(C)S(=O)(=O)c2ccc(Cl)cc2)[C@@H](C)CN([C@@H](C)CO)C(=O)c2cc(NS(=O)(=O)c3cccs3)ccc2O1 | inactive | inactive
C[C@H]1CN([C@@H](C)CO)C(=O)c2cc(NS(=O)(=O)c3cn(C)cn3)ccc2O[C@@H]1CN(C)CC1CCCCC1 | inactive | inactive
Cc1ccc(S(=O)(=O)Nc2cccc3c2O[C@@H](CN(C)S(=O)(=O)c2ccc(F)cc2)[C@@H](C)CN([C@H](C)CO)C3=O)cc1 | inactive | inactive
Cc1noc(C)c1NC(=O)Nc1ccc2c(c1)CC(=O)N([C@@H](C)CO)C[C@@H](C)[C@H](CN(C)Cc1ccc(C(F)(F)F)cc1)O2 | inactive | inactive
CC(=O)C=C(O)CCC(=O)O | inactive | inactive
COc1ccc(S(=O)(=O)N(C)C[C@H]2Oc3ccc(NS(=O)(=O)c4c(C)noc4C)cc3CC(=O)N([C@H](C)CO)C[C@@H]2C)cc1 | inactive | inactive
C[C@H]1CN([C@@H](C)CO)S(=O)(=O)c2ccc(-c3cccc(F)c3)cc2O[C@H]1CN(C)S(C)(=O)=O | inactive | inactive
CC(C)(C)c1c(C(C)(C)C)c1=O | inactive | inactive
CC(C)NC(=O)N(C)C[C@H]1OCCCC[C@H](C)Oc2ccc(NC(=O)Nc3ccccc3)cc2C(=O)N([C@H](C)CO)C[C@@H]1C | inactive | inactive
NS(=O)(=O)c1ccc(O)c([N+](=O)[O-])c1 | inactive | inactive
NNC(=O)c1ccccc1O | inactive | inactive
COc1ccc(S(=O)(=O)N(C)C[C@@H]2OCCCC[C@H](C)Oc3ccc(NC(=O)C4CCCCC4)cc3C(=O)N([C@H](C)CO)C[C@H]2C)cc1 | inactive | inactive
C[C@H](CCC(=O)NCC(=O)NCCS(=O)(=O)O)[C@H]1CC[C@H]2[C@@H]3[C@H](O)C[C@@H]4C[C@H](O)CC[C@]4(C)[C@H]3C[C@H](O)[C@]12C | inactive | inactive
C[C@@H]1CN([C@H](C)CO)C(=O)c2cc(NS(=O)(=O)c3cccs3)ccc2O[C@@H]1CN(C)C(=O)Nc1cccc2ccccc12 | inactive | inactive
